Several values for one entry are separate records, joined by “and”; a condition that tells them apart may be missing. Identical values can stand only once.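 In this assay, cells in 96-well plates receive the compound at five concentrations for 48 hours. Endpoints are linearly interpolated between the surrounding concentrations. GI50 marks 50% less growth. TGI denotes the concentration required for complete inhibition of growth.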
Test system: NCI-H322M lung
Test: DTP human tumour cell line panel, 48 h

| Structure (SMILES) | TGI | GI50 [µM] |
| --- | --- | --- |
| O/N=C/[C@H]1COC2(CCCCC2)O1 | > 100 µM | – |
| Cc1ccc2c(C(C[N+](=O)[O-])c3ccco3)c(-c3ccccc3)[nH]c2c1 (configuration not stated) | > 100 µM | > 100 |
| CC1CCc2sc3[nH]c(=S)n(C)c(=O)c3c2C1 (configuration not stated) | > 100 µM | – |
| Cc1ccc2nc(Nc3ccccc3C)c(Nc3ccccc3C)nc2c1 | > 100 µM | – |
| C=C1C(=O)C23CC1CCC2C12CO[C@@]3(O)[C@@H](O)C1C(C)(C)C=CC2=O (some centres not stated) | 9.94 µM and 22 µM | 10.3 |
| COC(=O)[C@@H]1[C@H]2CC[C@]3(C)[C@@H](OC(C)=O)CC[C@H]3[C@@H]2CC[C@H]1C1(C)SCCS1 | > 100 µM | – |
| COC(=O)C1=C(C(=O)OC)C(C(=O)OC)C(C(=O)OC)C(C(=O)OC)(C(=O)OC)C(C(=O)OC)=C1C(=O)OC (configuration not stated) | 39.7 µM | – |
| CC(C)(C)[Si](C)(C)OC1CCOC1(O)c1ccccn1 (configuration not stated) | > 100 µM | – |
| Fc1cccc(F)c1C1SCc2nc3cc(Cl)ccc3n21 (configuration not stated) | > 100 µM | – |
| O=C(O)C(Cc1c[nH]c2ccccc12)N1C(=O)c2ccccc2C1=O (configuration not stated) | > 100 µM | – |
| COc1ccc(-c2conc2-c2ccccc2)cc1 | > 100 µM | 0.597 |
| CC(=O)OC1Oc2cc(C)c(C)cc2-c2oc(=O)c(-c3ccccc3)cc21 (configuration not stated) | > 100 µM | 0.601 |
| COc1cc(/C=C2/C(=O)N(C(=O)c3ccccc3O)N=C2C)ccc1O | > 100 µM | – |
| Cc1cc(N(CCC#N)CCC#N)ccc1/C=C/C(=O)Nc1ccccc1Cl | > 100 µM | – |
| Nc1cc2nc(-c3ccccc3)cn2cn1 | > 100 µM | – |
| CNc1ccc(N=Nc2cccc3ncccc23)cc1 | > 100 µM | > 80.8 |
| NCCn1c2c(c3ccccc3c1=O)C(=O)c1ccccc1-2 | 3.68 µM | 0.939 |
| CCCCOP1(=O)C=CC(Cl)=C(C)C1 (configuration not stated) | > 100 µM | – |
| O=C1Nc2ccc(Br)cc2C1=Nc1ccc(Cl)cc1 | > 100 µM | – |

| Structure (SMILES) | TGI | GI50 [µM] |
| --- | --- | --- |
| C=C(C[N+](C)(C)C)N/N=C/c1oc(-c2ccc(OC)c(OC)c2)c(-c2ccc(OC)c(OC)c2)c1[N+](=O)[O-] | 68.3 µM | – |
| CCOc1cccc(/C=N/NC(=O)Cc2ccc(Nc3ccnc(C(F)(F)F)c3)cc2)c1O | > 100 µM | 2.6 |
| N#CC1=C(N)NC(=S)C(C#N)C12Nc1ccccc1S2 (configuration not stated) | 80.1 µM | 30.9 |
| CC(C)(C)c1cc(C(=O)O)c(C(c2ccccc2)c2ccccc2C(=O)O)c(C(=O)O)c1 (configuration not stated) | > 100 µM | – |
| C[N+]1(CCCCN2c3ccccc3Sc3cc(N=[N+]=[N-])ccc32)CCN(C(=O)CCNC(=O)Cc2ccc(C(=O)c3ccccc3)cc2)CC1 | 38.6 µM | – |
| COC(=O)C1=C(C(=O)OC)N(C(C)C)[C@H]2C(C(=O)OC)=C(C(=O)OC)N(C(C)C)[C@@H]12 | > 100 µM | – |
| CC(C)c1ccc2c(c1)c(SC(C)(C)C)c(CC(C)(C)C(=O)O)n2Cc1ccc(Cl)cc1 | 26.4 µM | 12.6 |
| COc1ccc(C2NC(=S)NC3=C2COc2ccc(F)cc23)cc1OC (configuration not stated) | > 100 µM | 29 |
| CN1CCN(CCCOc2ccc3ncnc(Nc4ccc(Oc5cccc(F)c5)c(Cl)c4)c3c2)CC1 | 2.94 µM | 1.33 |
| O=C(O)C12C3C4(C(=O)O)C1C1(C(=O)O)C2C3(C(=O)O)C41 (configuration not stated) | > 100 µM | – |
| O=C(/C=C/CC(O)(c1ccccc1)c1ccccc1)Nc1ccccc1Cl | > 100 µM | – |
| O=C(Nc1nc2ccc(F)cc2s1)c1cccnc1Nc1ccc(Cl)cc1Cl | 19.6 µM | 3.35 |
| Cc1cc(S(N)(=O)=O)c(S/C(=N\NS(=O)(=O)c2ccccc2)c2ccc(Cl)c(Cl)c2)cc1Cl | > 100 µM | 66.8 |
| O=C(O)CCSc1ncnc2nc[nH]c12 | > 100 µM | – |
| Brc1ccc(/C(N=N/C(=N\Sc2ccccc2)c2ccc(Br)cc2)=N/Sc2ccccc2)cc1 | > 100 µM | – |
| CC1(C)Oc2ccccc2N2O[C@@H]3C(=O)N(c4ccccc4)C(=O)[C@@H]3C21c1ccccc1 (some centres not stated) | 70.8 µM | – |
| COc1ccc(-c2cn(-c3cc(OC)c(OC)c(OC)c3)c(=O)n2-c2ccccc2)cc1 | > 100 µM | > 100 |
| CCC1(c2ccc(OC)c(OC)c2)CCN2C(=O)C(O)CC21 (configuration not stated) | > 100 µM | – |
| C=CCN(c1cc(OC)c2[nH]c(C(=O)O)c(C)c2c1[N+](=O)[O-])S(C)(=O)=O | > 100 µM | – |

Reference: PubChem BioAssay (NCI)
